In PubChem BioAssay AID1460 (National Center for Advancing Translational Sciences (NCATS), 2008):
In all, about 270,000 compounds went through this assay and about 5,800 (2.1%) were called active. The inconclusive results got no clear call from the source; some entries with a clear call stand among them for comparison. Calls follow the shape of the dose curve; as a rule, active = well fitted inhibition curve with a large enough effect; inconclusive = small, poorly fitted or top-dose-only effect; inactive = flat fitted curve, though single readings scatter. Potencies of inconclusive entries are doubtful fits and often do not repeat.

Molecular target: Microtubule-associated protein tau (Homo sapiens) (UniProt P10636)
Test: qHTS for Inhibitors of Tau Fibril Formation, Thioflavin T Binding; also: nearly all actives have a fitted effect of over 55% in size
Conditions: recombinant tau K18 P301L (four-repeat tau fragment), heparin-induced fibrillization, ThT fluorescence; series mostly up to 57.4 µM; activity, negative = inhibition: at the top concentration
How it was run: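 Heparin-induced (20 uM) aggregation of recombinant human K18 P301L tau, 15 uM unlabeled with 0.24 uM labeled, pH 7 acetate buffer, 6 hr at 37 C with compound. Fibrils quantified by 30 uM ThT fluorescence after 1 hr ambient incubation.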
% is scaled to controls: 0 for no effect and ±100 for the full control effect; potency is read from the fitted curve at half-maximal effect; tags tell the direction and shape of the fitted curve.

Sequence of UniProt P10636 (P10636 whole entry, looked up): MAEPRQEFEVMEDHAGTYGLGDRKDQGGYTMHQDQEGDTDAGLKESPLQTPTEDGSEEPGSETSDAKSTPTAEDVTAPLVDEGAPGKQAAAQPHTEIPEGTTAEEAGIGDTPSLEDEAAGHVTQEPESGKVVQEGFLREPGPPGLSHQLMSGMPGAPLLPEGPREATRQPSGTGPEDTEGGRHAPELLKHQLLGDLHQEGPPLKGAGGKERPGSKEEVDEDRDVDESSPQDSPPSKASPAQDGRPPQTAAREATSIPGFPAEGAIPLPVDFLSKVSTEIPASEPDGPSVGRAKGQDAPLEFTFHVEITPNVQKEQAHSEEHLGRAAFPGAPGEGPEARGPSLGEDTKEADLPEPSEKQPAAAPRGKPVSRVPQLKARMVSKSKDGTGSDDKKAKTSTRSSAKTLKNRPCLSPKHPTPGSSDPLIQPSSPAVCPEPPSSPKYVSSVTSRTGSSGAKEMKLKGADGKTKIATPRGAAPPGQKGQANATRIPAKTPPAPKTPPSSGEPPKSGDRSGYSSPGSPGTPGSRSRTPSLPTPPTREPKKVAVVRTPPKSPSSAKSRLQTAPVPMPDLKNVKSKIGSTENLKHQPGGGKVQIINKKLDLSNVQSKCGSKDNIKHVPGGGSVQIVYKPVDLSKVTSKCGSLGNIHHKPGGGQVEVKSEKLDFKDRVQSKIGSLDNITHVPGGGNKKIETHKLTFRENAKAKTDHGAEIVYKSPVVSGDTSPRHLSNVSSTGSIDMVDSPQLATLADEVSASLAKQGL

SMILES | Potency | activity, negative = inhibition
CCCN1C(=O)/C(=C/c2ccc(OCC(=O)OCC)cc2)NC1=S | inconclusive: 2.82 µM [inhibitor, full curve] | 
CC(c1ccccc1)n1c(-c2cccs2)nc2c(c(=O)c3ccccc3n2C)c1=O (stereo not given) | inconclusive: 10 µM [inhibitor, partial curve] | 
O=C(/C=C/c1ccc2c(c1)OCO2)Nc1c(C(=O)O)[nH]c2ccccc12 | active: 12.6 µM | 
CCNC(=S)SCCOc1ccccc1C | inconclusive: 22.4 µM [inhibitor, partial curve] | 
CCc1cc2c(N3CCN(c4ccccc4)CC3)ncnc2s1 | inconclusive: 25.1 µM [inhibitor, partial curve] | 
CN(C)CCNC(=O)/C(=N\O)c1ccccn1 |  | inactive: -2.54%
CCc1ccccc1NC(=O)CSc1nc(-c2ccccc2)nn1C(=O)c1cccc([N+](=O)[O-])c1 | inconclusive: 31.6 µM [inhibitor, single point] | 
CCOC(=O)c1ccc(NC(=O)CSCc2ccco2)cc1 | inconclusive: 20 µM [inhibitor, partial curve, poor fit] | 
O=C(NCc1ccccc1)/C(=C/c1ccc(OC(F)F)cc1)c1ccccc1 | inconclusive: 15.8 µM [inhibitor, partial curve] | 
Cc1cccc(C=Nc2ccc3c(c2)oc2ccccc23)c1O |  | inactive: -3.3%
Cc1ccccc1NNC(N)=S | inconclusive: 17.8 µM [inhibitor, partial curve] | 
Cc1cc(C)c2c(n1)sc1c(=O)n(-c3cc(Cl)ccc3C)nnc12 |  | inactive: 1.42%
Cc1ccc(C2CCN(C(=O)Nc3ccc(F)cc3)C2)cc1 (stereo not given) | inconclusive: 25.1 µM [inhibitor, partial curve, poor fit] | 
O=C(NCCc1nc(-c2ccccc2)cs1)c1ccc(Br)cc1 | inconclusive: 31.6 µM [inhibitor, single point] | 
O=C(/C=C\c1ccccc1)NC1CC(=O)N(c2ccccc2)C1 (stereo not given) |  | inactive: -9.15%
COc1cccc(CNc2ccc(C)c(Cl)c2)c1 | inconclusive: 12.6 µM [inhibitor, partial curve] | 
COc1ccc(NC(=O)c2cc3ccccc3o2)cc1 | inconclusive: 15.8 µM [inhibitor, partial curve] | 
C=CCNC(=O)/C(C#N)=C/c1ccc(OS(=O)(=O)c2ccc(C)cc2)c(OC)c1 | inconclusive: 11.2 µM [inhibitor, partial curve] | 
O=S(=O)(CCn1cccc1)CCn1cccc1 |  | inactive: -1.59%
O=C(CC12CC3CC(CC(C3)C1)C2)NC(=S)N1CCCCC1 |  | inactive: -7.86%
OC1(C(F)(F)F)CC(O)(C(F)(F)F)n2nc(-c3ccccc3)cc2N1 (stereo not given) | inconclusive: 22.4 µM [inhibitor, partial curve] | 
Cc1ccc(C)c(N2CCN(C(=O)c3cc(S(=O)(=O)N4CCCCCC4)cn3C)CC2)c1 |  | inactive: -13.4%
C=CSc1sc(Cl)c(N2CCOCC2)c1[N+](=O)[O-] | active: 14.1 µM | 

SMILES | Potency | activity, negative = inhibition
CCN(CC)S(=O)(=O)c1ccc2oc(C(=O)NCc3ccccc3OC)c(C)c2c1 | inconclusive: 11.2 µM [inhibitor, partial curve] | 
CC(Nc1cc(N2CCN(S(C)(=O)=O)CC2)ccc1[N+](=O)[O-])c1ccccc1 (stereo not given) | inconclusive: 12.6 µM [inhibitor, partial curve] | 
Cc1nc(NC(=O)/C=C/c2ccccc2)sc1C(=O)Nc1cccc(Cl)c1 | inconclusive: 1.58 µM [inhibitor, full curve] | 
O=[N+]([O-])c1cc(Cl)ccc1N1CCCC1 |  | inactive: -17%
CC(C)C(C)(C#N)NC(=O)CSc1nc2scc(-c3ccccc3)c2c(=O)[nH]1 (stereo not given) | inconclusive: 11.2 µM [inhibitor, partial curve] | 
COc1ccc2c(c1)-c1ccccc1S(=O)(=O)N2C(C)=O | inconclusive: 20 µM [inhibitor, single point] | 
O=C(NCc1cccs1)c1ccc(Cn2c(SCc3ccc(F)cc3)nc3cccnc32)cc1 | inconclusive: 8.91 µM [inhibitor, full curve, poor fit] | 
CNC(=S)N/N=C/c1cn(CCOc2cccc(OC)c2)c2ccccc12 | inconclusive: 15.8 µM [inhibitor, partial curve] | 
COc1cccc(NC(=O)c2cnc(SCC(=O)N3CCOCC3)n(C)c2=O)c1 | inconclusive: 14.1 µM [inhibitor, partial curve] | 
COc1ccc(NC(=O)C(=O)N/N=C/c2cc(C)n(-c3cccc(Cl)c3Cl)c2C)c(OC)c1 |  | inactive: -9.25%
COc1ccc(Cn2nnnc2C(c2cccs2)N2CCN(c3ccc([N+](=O)[O-])cc3)CC2)cc1 (stereo not given) | inconclusive: 11.2 µM [inhibitor, partial curve] | 
Cc1ccc(Nc2nnc(SCC3CCCCO3)s2)cc1 (stereo not given) | inconclusive: 14.1 µM [inhibitor, partial curve] | 
COc1ccc(/C=C(\C#N)c2nc3ccccc3n2C)c(OC)c1 | active: 14.1 µM | 
O=C(O)c1cccc(-n2cccc2C=C2C(=O)c3ccccc3C2=O)c1 | inconclusive: 17.8 µM [inhibitor, partial curve] | 
N#Cc1ccc(N2Cc3ccccc3C2=NC(=O)c2cccnc2Cl)cc1 | inconclusive: 2 µM [inhibitor, full curve] | 
CCCCCC(=O)Nc1ccc(N2CCN(C(=O)CCC)CC2)cc1 | inconclusive: 5.01 µM [inhibitor, partial curve] | 
CCC(=O)N1c2ccc(S(=O)(=O)CCC(=O)Nc3ccc(Br)c(C)c3)cc2CC1C (stereo not given) |  | inactive: -11.1%
CN(C(=O)COC(=O)/C=C/c1ccccc1[N+](=O)[O-])c1ccccc1 |  | inactive: -4.64%
O=C(CN1CCN(c2ccccc2O)CC1)Nc1ccc2c(c1)CCC2 | inconclusive: 22.4 µM [inhibitor, partial curve] | 
CCCCN(C)CCCNC(=O)Cn1ncc2c3ccccc3n(Cc3cc(C)ccc3C)c2c1=O |  | inactive: -5.17%
CCN(Cc1ccccc1)C(=O)c1sc2nc3n(c(=O)c2c1C)CCCC3 | inconclusive: 4.47 µM [inhibitor, full curve] | 
CC(=O)Nc1ccc(NC(=O)CCCCCN2C(=O)c3ccccc3C2=O)cc1 |  | inactive: -11.3%
